Where a name gives a salt, the structure may show the parent alone. ± gives the standard deviation of the averaged measurements. The full ranking holds about 1,900 compounds; the median of “normalised cell viability (NPI; 0 = phenylarsine oxide control, 1 = DMSO control)” is about 1, and the lowest 2% start at about 0.039. The list shows a part of the results.
Tested on: NCI-H1944
Test: normalised cell viability (NPI; 0 = phenylarsine oxide control, 1 = DMSO control) (fraction of DMSO control); NCI-H1944 is a non-small cell lung cancer line; higher = more viable cells (less compound toxicity)
Conditions: 6 days
[1] = glucocorticoid arm: hydrocortisone 2.75 uM co-treatment, compound 1 µM
[2] = glucocorticoid arm: hydrocortisone 2.75 uM co-treatment, compound 5 µM
[3] = glucocorticoid arm: hydrocortisone 2.75 uM pre-treated 2 days and continued, compound 1 µM
[4] = glucocorticoid arm: hydrocortisone 2.75 uM pre-treated 2 days and continued, compound 5 µM
[5] = glucocorticoid arm: vehicle, compound 1 µM
[6] = glucocorticoid arm: vehicle, compound 5 µM
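Note: CTB read-out in 384-well plates, mean of triplicate wells, normalised per plate against 1 µM phenylarsine oxide and 0.1% DMSO, compounds added 24 h after seeding.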

Row | Structure (SMILES) | normalised cell viability [1] | normalised cell viability [2] | normalised cell viability [3] | normalised cell viability [4] | normalised cell viability [5] | normalised cell viability [6]
1 | CC1=C(C(=O)O)N2C(=O)[C@@H](NC(=O)[C@H](N)c3ccccc3)[C@H]2SC1 [Cephalexin hydrate] | 1.003 ± 0.0064 | 1.01 ± 0.012 | 1.01 ± 0.01 | 0.996 ± 0.035 | 0.9907 ± 0.0051 | 0.998 ± 0.001
2 | CC(C)(C)OC(=O)Nc1ccc(-c2cc(C(=O)NCCCCCCC(=O)NO)no2)cc1 | 0.9572 ± 0.0081 | 0.244 ± 0.23 | 0.991 ± 0.025 | 0.677 ± 0.31 | 0.806 ± 0.15 | 0.0189 ± 0.02
3 | O=C(OCCN1CCCCC1)c1c[nH]c2ccccc12 | 0.983 ± 0.016 | 0.951 ± 0.022 | 0.9873 ± 0.0064 | 0.955 ± 0.036 | 0.9787 ± 0.0025 | 0.975 ± 0.0035
4 | C[C@H](CCC(=O)NCCS(=O)(=O)O)[C@H]1CC[C@H]2[C@@H]3[C@H](O)C[C@@H]4C[C@H](O)CC[C@]4(C)[C@H]3C[C@H](O)[C@]12C [Taurocholic acid sodium salt hydrate] | 1.001 ± 0.009 | 1.01 ± 0.01 | 0.9973 ± 0.0046 | 1.005 ± 0.0071 | 0.987 ± 0.0082 | 0.9903 ± 0.0075
5 | Nc1ccccc1NC(=O)c1ccc(CNc2nccc(-c3cccnc3)n2)cc1 [Mocetinostat (MGCD0103)] | 1.033 ± 0.0058 | 0.00494 ± 0.0024 | 1.02 ± 0.02 | 0.0153 ± 0.0051 | 0.585 ± 0.02 | 0.00194 ± 0.00024
6 | CCCn1c(=O)c2[nH]c(-c3ccc(OCC(=O)NCCN)cc3)nc2n(CCC)c1=O [Xanthine amine congener] | 0.998 ± 0.0035 | 0.999 ± 0.0098 | 1.02 ± 0.017 | 1.01 ± 0.017 | 1.02 | 1.017 ± 0.0058
7 | CC[C@@H]1Cc2cc(O)ccc2C2=C1c1ccc(O)cc1C[C@H]2CC [(R,R)-cis-Diethyl tetrahydro-2,8-chrysenediol] | 0.979 ± 0.015 | 0.897 ± 0.015 | 0.9867 ± 0.0086 | 1.01 ± 0.015 | 0.9853 ± 0.0091 | 0.987 ± 0.011
8 | Cc1c2oc3c(C)ccc(C(=O)N[C@@H]4C(=O)N[C@H](C(C)C)C(=O)N5CCC[C@H]5C(=O)N(C)CC(=O)N(C)[C@@H](C(C)C)C(=O)O[C@@H]4C)c3nc-2c(C(=O)N[C@@H]2C(=O)N[C@H](C(C)C)C(=O)N3CCC[C@H]3C(=O)N(C)CC(=O)N(C)[C@@H](C(C)C)C(=O)O[C@@H]2C)c(N)c1=O [Dactinomycin] | 0.0161 ± 0.0015 | 0.0688 ± 0.0039 | 0.0397 ± 0.0056 | 0.183 ± 0.016 | 0.0046 ± 0.00021 | 0.0187 ± 0.0011
9 | Cc1nccn1CC1CCc2c(c3ccccc3n2C)C1=O (configuration not stated) [Ondansetron HCl] | 1.02 ± 0.015 | 1.03 ± 0.038 | 1.02 ± 0.011 | 1.04 ± 0.01 | 1.006 ± 0.0063 | 1.005 ± 0.0081
10 | O=c1c2ccccc2[nH]c(=S)n1CCN1CCC(=C(c2ccc(F)cc2)c2ccc(F)cc2)CC1 [Diacylglycerol Kinase Inhibitor II] | 1.013 ± 0.0058 | 0.987 ± 0.022 | 1.006 ± 0.0063 | 1 ± 0.024 | 1.013 ± 0.0058 | 1.017 ± 0.0058
11 | CC(=O)O[C@]1(C(C)=O)CC[C@H]2[C@@H]3C=C(C)C4=CC(=O)CC[C@]4(C)[C@H]3CC[C@@]21C [Megestrol Acetate] | 0.996 ± 0.014 | 1.017 ± 0.0058 | 1.01 ± 0.013 | 1.02 ± 0.011 | 0.952 ± 0.014 | 0.946 ± 0.012
12 | CC(=O)O[C@]1(C(C)=O)CC[C@H]2[C@@H]3C=C(C)C4=CC(=O)CC[C@]4(C)[C@H]3CC[C@@]21C [Megestrol acetate] | 1.02 | 0.8967 ± 0.0085 | 1.007 ± 0.0058 | 0.942 ± 0.012 | 0.97 ± 0.013 | 0.642 ± 0.013

Reference: the supplement of paper PMC8285479
